Experimental data published in PubChem BioAssay (NCATS).
Inconclusive means that the source gave no clear call. Such entries were picked first, then a sample of the others. Potencies of inconclusive entries are left out as doubtful fits. Calls of active or inactive are those of the source. Calls follow the shape of the dose curve; as a rule, active = well fitted cell-killing curve with a large enough effect; inconclusive = small, poorly fitted or top-dose-only effect; inactive = no such curve, though single readings can be large or run the other way.

Assay: qHTS of pediatric cancer cell lines to identify multiple opportunities for drug repurposing: Primary screen for SK-N-SH cells (AID 1347098); also: nearly all actives have a fitted effect of over 65% in size
Conditions: SK-N-SH viability, CellTiter-Glo luminescence, 48 h; activity change, negative = cytotoxic: at 57 µM (top of the series) unless noted
Excerpt: Drug repurposing or repositioning has been offered as a strategy for drug development in oncology programs. This approach has special potential for childhood cancers and other rare or orphan diseases, where the expected return on new drug development has been a disincentive to pharmaceuticals.
In this project we exploit the poly-pharmacology of drugs to discover new indications via phenotypic screening of a panel of 19 well-characterized cell lines derived from solid tumors seen in children and adolescents. The goal is to identify approved drugs with previously unrecognized anticancer properties that has the potential to reveal new mechanisms and biological processes involved in carcinogenesis or drug resistance. We employed a titration-based paradigm (quantitative high-throughput screening or qHTS), where all compounds were tested at multiple concentrations for their effect on cell viability. Concentration-response curves (CRCs) were derived directly from the primary screen, and both potency and efficacy values were used to identify compounds with robust bioactivity profiles. We screened the NIH Chemical Genomics Center (NCGC) Pharmaceutical Collection (NPC) and Mechanism Interrogation Plate (MIPE) small molecule collections of approved and investigational compounds against these cell lines; and measured metabolically active cells after 48 hours of compound treatment as a proxy for cell viability.
Assay Submitter: Nathalia J. Martinez, National Center for Advancing Translational Sciences, National Institutes of Health, Rockville, MD, USA; email: natalia.martinez@nih.gov
[1] Shen, M et al. Quantitative high-throughput phenotypic screening of pediatric cancer cell lines identifies multiple opportunities for drug repurposing. Oncotarget 2017 Dec 19;9(4):4758-4772. PMID 29435139.
The cells were obtained from University of North Carolina (UNC), Pediatric Preclinical Testing Program (PPT), and Coriell Institute (CI).
qHTS cell viability assay:
Cells were assayed in growth media at a density of 500-1,000 cells/well. Five microliters of cells were dispensed into 1,536-well, white, solid-bottom, TC-treated plates (Greiner Bio One) using a multidrop dispenser and incubated at 37 degrees C, 5% CO2, under a humidified atmosphere for 5 hours. Twenty-three nanoliters of compounds and controls (neutral control DMSO or positive control bortezomib at final concentration of 2.3 µM) were subsequently transferred by Kalypsys pintool. For primary screens, the MIPE collection was tested at 11-point dilutions (final concentrations range from 0.78 nM to 46 µM) and the NPC collection at 8-point dilutions (final concentrations range from 0.59 nM to 46 µM). Compounds tested in follow-up screens were assayed at 11-point dilutions. Cells were incubated for 48 hours, followed by addition of 3 µL of CellTiter-Glo (Promega). After a 15 min incubation at room temperature, samples were analyzed for luminescence intensity using a ViewLux High-throughput CCD imager equipped with clear filters.
% is scaled to controls: 0 for no effect and ±100 for the full control effect; potency is read from the fitted curve at half-maximal effect; tags tell the direction and shape of the fitted curve.

Q: Which Potency does the source give for `COc1cc2cc(c1Cl)N(C)C(=O)C[C@H](OC(=O)C(C)C)[C@]1(C)O[C@H]1[C@H](C)[C@@H]1C[C@@](O)(NC(=O)O1)[C@H](OC)C=CC=C(C)C2` here?
A: The Potency was inconclusive [cytotoxic, partial curve, poor fit].

Q: For `CN(C)CCN(C)CCc1ccc(Cl)c(Cl)c1`, which Potency is on record?
A: Its Potency is inconclusive [cytotoxic, single point].

Q: For `C[C@@H]1[C@@H](CC(C[C@H]2O[C@@H]3O[C@]4(C)CC[C@@H]5[C@H](C)CC[C@@H]([C@H]2C)[C@@]35OO4)C[S+](=O)([O-])c2ccc(COC(=O)N(C)C)cc2)O[C@@H]2O[C@]3(C)CC[C@H]4[C@H](C)CC[C@@H]1[C@@]24OO3` (stereo not given in full), which Potency is on record?
A: Its Potency is inconclusive [cytotoxic, partial curve].

Q: With `CCOC(=O)Nc1ccc(NCc2ccc(F)cc2)cc1N` as the compound, how does the Potency read?
A: Its Potency is inconclusive [cytotoxic, partial curve].

Q: With `O=C(O)COc1nc(Cl)c(Cl)cc1Cl` as the compound, how does the “activity change, negative = cytotoxic” value read?
A: The value was inactive: -15% [at 115 µM].

Q: With `CC(=O)Nc1ccc(OC[C@](C)(O)C(=O)Nc2ccc([N+](=O)[O-])c(C(F)(F)F)c2)cc1` as the compound, how does the “activity change, negative = cytotoxic” value read?
A: Its value is inactive: -20.4%.

Q: Which “activity change, negative = cytotoxic” value does the source give for `C#C[C@]1(O)CC[C@H]2[C@@H]3CCC4=CC(=O)CC[C@]4(C)[C@H]3CC[C@@]21C` here?
A: The value was inactive: -1.71%.

Q: Which “activity change, negative = cytotoxic” value does the source give for `CCN(C(C)=O)c1cccc(-c2ccnc3c(C#N)cnn23)c1` here?
A: The value was inactive: -0.874%.

Q: With `Clc1ccc(CO/N=C(\Cn2ccnc2)c2ccc(Cl)cc2Cl)c(Cl)c1` as the compound, how does the Potency read?
A: Its Potency is inconclusive [cytotoxic, single point].

Q: For `CC1COC2(c3ccccc3Cl)c3cc(Cl)ccc3NC(=O)CN12` (stereo not given), which Potency is on record?
A: Its Potency is inconclusive [cytotoxic, single point].

Q: Which “activity change, negative = cytotoxic” value does the source give for `C#C[C@]1(O)C=C[C@H]2[C@@H]3CCC4=CC(=O)CC[C@@H]4[C@H]3CC[C@@]21CC` here?
A: The value was inactive: -4.89%.

Q: Which Potency does the source give for `O=C1CC[C@@]2(O)[C@H]3Cc4ccc(O)c5c4[C@@]2(CCN3CC2CC2)[C@H]1O5` here?
A: The Potency was “inactive”.

Q: For `CO[C@H]1CCC(O[C@H]2C[C@H]([C@]3(C)CC[C@]4(C[C@H](O)[C@@H](C)[C@@H]([C@@H](C)C=C(C)C(=O)[C@H](C)C[C@H](C)C(=O)O)O4)O3)O[C@]3(O[C@@H]([C@H]4O[C@@](O)(CO)[C@H](C)C[C@H]4C)C[C@H]3C)[C@H]2C)O[C@H]1C` (stereo not given in full), which Potency is on record?
A: The Potency was active: 30.4 µM.

Q: Which “activity change, negative = cytotoxic” value does the source give for `CC(C)NCC(O)c1ccc(N)c(C#N)c1` (stereo not given) here?
A: The value was inactive: -7.69%.

Q: With `Cc1c(C(=O)c2cccc3ccccc23)c2cccc3c2n1[C@H](CN1CCOCC1)CO3` as the compound, how does the Potency read?
A: Its Potency is inconclusive [cytotoxic, single point].

Q: For `C[N+]1(C)[C@@H]2CC[C@H]1CC(OC(=O)C(CO)c1ccccc1)C2` (stereo not given in full), which Potency is on record?
A: Its Potency is inconclusive [cytotoxic, partial curve, poor fit].

Q: For `O=C(N[C@@H](COc1ccc2[nH]c(=O)[nH]c2c1)c1ccccc1)c1cccn(Cc2ccc(F)c(F)c2)c1=O`, which Potency is on record?
A: Its Potency is inconclusive [cytotoxic, partial curve].

Q: For `CCC(C(N)=O)N1CCCC1=O` (stereo not given), which “activity change, negative = cytotoxic” value is on record?
A: Its value is inactive: 3.89%.

Q: Which “activity change, negative = cytotoxic” value does the source give for `O=C1c2ccccc2C(=O)C1C(=O)C(c1ccccc1)c1ccccc1` here?
A: The value was inactive: -21.9%.

Q: Which “activity change, negative = cytotoxic” value does the source give for `COc1cc(C[C@@H](C)N)c(OC)cc1C` here?
A: The value was inactive: -16.9% [at 115 µM].

Q: For `O=[N+]([O-])c1c2ccccc2cc2ccccc12`, which Potency is on record?
A: Its Potency is inconclusive [cytotoxic, partial curve].

Q: With `Nc1nc(N)nc(NC2CC2)n1` as the compound, how does the “activity change, negative = cytotoxic” value read?
A: Its value is inactive: -5.83%.

Q: Which Potency does the source give for `O=C(N[C@H]1CN2CCC1CC2)c1ccc(Cl)cc1` here?
A: The Potency was active: 6.81 µM.

Q: With `CCC(=O)C(CC(C)N(C)C)(c1ccccc1)c1ccccc1` (stereo not given) as the compound, how does the Potency read?
A: The Potency was inconclusive [cytotoxic, single point].

Q: For `C[C@]12CC[C@H]3[C@@H](CCC4=CC(=O)CC[C@@H]43)[C@@H]1CC[C@@H]2OC(=O)CCc1ccco1`, which “activity change, negative = cytotoxic” value is on record?
A: The value was inactive: -2.14%.

Q: Which Potency does the source give for `CC(C)(C)NCC(O)c1ccccc1Cl` (stereo not given) here?
A: Its Potency is inconclusive [cytotoxic, full curve, poor fit].

Q: Which Potency does the source give for `CCOC(=O)c1c(C(C#N)=CN)c2ccc(Cl)c(Cl)c2n1C` here?
A: The Potency was inconclusive [cytotoxic, partial curve].

Q: For `C[C@]12CC[C@@H]3[C@@H](CCC4=CC(=O)CC[C@@H]43)[C@@H]1CC[C@@H]2OC(=O)CCc1ccccc1`, which Potency is on record?
A: The Potency was inconclusive [cytotoxic, single point].

Q: For `CCc1cc(OC)c(C[C@H](C)N)cc1OC`, which Potency is on record?
A: The Potency was inconclusive [cytotoxic, partial curve, poor fit].

Q: Which “activity change, negative = cytotoxic” value does the source give for `CC(=O)C1CCOC1=O` (stereo not given) here?
A: The value was inactive: -18.1%.

Q: With `C[C@H]1O[C@@H](O[C@H]2[C@@H](O)C[C@H](O[C@H]3[C@@H](O)C[C@H](O[C@H]4CC[C@@]5(C)[C@H](CC[C@@H]6[C@@H]5CC[C@]5(C)[C@@H](C7=CC(=O)OC7)CC[C@]65O)C4)O[C@@H]3C)O[C@@H]2C)C[C@H](O)[C@@H]1O` as the compound, how does the Potency read?
A: Its Potency is active: 0.0864 µM.

Q: For `C[C@]12CC[C@H]3[C@@H](CCC4=CC(=O)CC[C@@]43C)[C@@H]1CC[C@@H]2C(=O)O`, which “activity change, negative = cytotoxic” value is on record?
A: Its value is inactive: 11.4%.

Q: For `CC(N[C@H]1C[C@H]1c1ccccc1)c1ccc2c(c1)OCCO2` (stereo not given in full), which Potency is on record?
A: Its Potency is inconclusive [cytotoxic, partial curve].

Q: Which “activity change, negative = cytotoxic” value does the source give for `COc1ccccc1N1CCNCC1` here?
A: The value was inactive: -10.9%.

Q: With `CO/C=C(/C(=O)OC)c1ccccc1Oc1cc(Oc2ccccc2C#N)ncn1` as the compound, how does the Potency read?
A: Its Potency is inconclusive [cytotoxic, partial curve, poor fit].

Q: For `CC(C)=CC1C(C(=O)OCN2C(=O)C3=C(CCCC3)C2=O)C1(C)C` (stereo not given), which Potency is on record?
A: The Potency was inconclusive [cytotoxic, partial curve, poor fit].

Q: For `CC[n+]1c(-c2ccccc2)c2cc(N)ccc2c2ccc(N)cc21`, which Potency is on record?
A: The Potency was active: 7.7 µM.

Q: For `CC1(C)CC/C(=C/c2ccc(Cl)cc2)C1(O)Cn1cncn1` (stereo not given), which Potency is on record?
A: The Potency was inconclusive [cytotoxic, full curve, poor fit].

Q: Which Potency does the source give for `O=c1[nH]c2ccccc2n1CCCN1CCC(n2c(=O)[nH]c3cc(Cl)ccc32)CC1` here?
A: The Potency was inconclusive [cytotoxic, single point].

Q: For `C[C@@H]1O[C@@H](O[C@@H]2C=C3CC[C@@H]4[C@@H](CC[C@]5(C)[C@H](c6ccc(=O)oc6)CC[C@@]45O)[C@@]3(C)CC2)[C@H](O)[C@H](O)[C@H]1O`, which Potency is on record?
A: The Potency was active: 0.0961 µM.
